Experimental data reported in publication PMC4336329 (PLoS ONE, 2015).
Out of some 310,000 compounds screened, about 2,200 (0.71%) showed an effect of 50% or more. Effects have a minus sign here. This is one part of the list. *1 amine or outer side, *2 acyl side, *3 side chain or, on linkers, in order; H or OH if unused. Where a SMILES comes first, the peptide text is derived from it. [ ]: non-standard residue; d: D form. ξ: configuration not given here. ξR = N=C(N)NCCCC(N)C(=O)O; ξF = NC(Cc1ccccc1)C(=O)O; CO = O=C([*:1])[*:2]

Target: human ether-à-go-go-related gene (hERG) potassium channel (human, UniProt Q12809)
Sequence (Q12809 whole entry, looked up): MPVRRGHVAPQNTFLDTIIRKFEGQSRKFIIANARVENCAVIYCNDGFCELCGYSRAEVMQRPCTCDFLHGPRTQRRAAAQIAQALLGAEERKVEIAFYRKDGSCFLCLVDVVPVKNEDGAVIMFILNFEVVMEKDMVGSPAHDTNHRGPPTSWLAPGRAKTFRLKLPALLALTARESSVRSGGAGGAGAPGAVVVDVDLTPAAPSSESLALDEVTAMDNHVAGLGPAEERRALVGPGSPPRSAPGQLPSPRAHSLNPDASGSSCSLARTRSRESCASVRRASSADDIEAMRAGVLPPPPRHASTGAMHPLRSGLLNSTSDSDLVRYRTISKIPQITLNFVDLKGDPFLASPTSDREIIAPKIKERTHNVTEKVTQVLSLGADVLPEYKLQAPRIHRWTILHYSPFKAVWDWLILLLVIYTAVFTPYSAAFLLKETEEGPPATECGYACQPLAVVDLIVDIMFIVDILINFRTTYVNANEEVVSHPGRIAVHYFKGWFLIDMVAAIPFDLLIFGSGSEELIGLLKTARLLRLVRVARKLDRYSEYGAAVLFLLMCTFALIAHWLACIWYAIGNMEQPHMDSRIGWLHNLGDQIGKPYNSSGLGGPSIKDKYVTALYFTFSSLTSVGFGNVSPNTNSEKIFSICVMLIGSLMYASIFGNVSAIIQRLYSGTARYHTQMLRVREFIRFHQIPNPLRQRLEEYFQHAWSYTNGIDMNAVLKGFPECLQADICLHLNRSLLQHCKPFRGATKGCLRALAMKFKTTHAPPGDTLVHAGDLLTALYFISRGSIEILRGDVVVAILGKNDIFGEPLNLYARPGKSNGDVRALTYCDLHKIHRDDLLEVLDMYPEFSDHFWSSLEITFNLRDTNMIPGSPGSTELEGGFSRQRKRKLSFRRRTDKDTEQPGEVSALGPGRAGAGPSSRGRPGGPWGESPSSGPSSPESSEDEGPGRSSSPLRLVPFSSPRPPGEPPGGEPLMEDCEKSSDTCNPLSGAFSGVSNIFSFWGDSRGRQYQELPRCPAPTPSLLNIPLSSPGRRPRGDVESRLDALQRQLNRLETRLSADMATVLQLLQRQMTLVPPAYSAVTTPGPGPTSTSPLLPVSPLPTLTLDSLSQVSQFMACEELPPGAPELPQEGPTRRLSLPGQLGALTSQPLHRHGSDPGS
Assay: primary screen, population patch clamp on CHO cells stably expressing hERG

| SMILES | hERG current change (%, negative = inhibition) at 1uM |
| --- | --- |
| COC(=O)c1[nH]c2ccc(Br)cc2c1NC(=O)CN1CCCc2ccccc21 | 8.7% |
| C=CCN(CC=C)CC(=O)Nc1cccc(Oc2cnccn2)c1 | 17.7% |
| COc1ccccc1C(=O)NC(=O)COC(=O)C1(C)CC1(Cl)Cl (centres unmarked) | 7.58% |
| CC(Cc1ccccc1)N1C(=O)c2cccc([N+](=O)[O-])c2C1=O (centres unmarked) | 16% |
| CSCC(=O)N1CCC(CCC(=O)NC2CC2)CC1 | 10.7% |
| CCOC(=O)c1c(-c2ccccc2)csc1NC(=O)COc1ccc2c(C)cc(=O)oc2c1 | 9.49% |
| CC(=O)c1cccc(NC(=S)NC(=O)c2ccccc2Br)c1 | 11.9% |
| Cc1cc(NC(=O)COC(=O)C(C)Oc2ccc(Cl)cc2Cl)no1 (centres unmarked) | 19.1% |
| CCOC(=O)C1=C(N)n2c(s/c(=C\c3cccnc3)c2=O)=C(C(=O)OC)C1c1cccnc1 (centres unmarked) | 10.4% |
| O=C(Nc1ccccc1)N1CCCC1 | 0.56% |
| COC(=O)CCC(=O)N(CCN(Cc1ccccc1)C(=O)CCC(=O)OC)Cc1ccccc1 | 5.12% |
| CN1C(=O)CSC1=Nc1cccc(C(=O)O)c1 | 11.7% |
| CC(C)N(CCCNC(=O)C1CCN(C(=O)c2cc3sccc3n2C)CC1)Cc1ccccc1 | -6.77% |
| CC(C)c1ccccc1NC(=O)c1cnccn1 | 2.73% |
| N#Cc1cccc(NC(=O)CSc2n[nH]c(=O)[nH]c2=O)c1 | 9.04% |
| CCCCc1ccc(CC(=O)Nc2cc(S(=O)(=O)N3CCOCC3)ccc2O)cc1 | 12.3% |
| O=C(Cc1cccc(C(F)(F)F)c1)NCc1cccc(Cl)c1 | 9.22% |
| O=C(CSc1cccc2cccc(Cl)c12)OCC(=O)N1CCN(C(=O)c2ccco2)CC1 | -14.2% |
| CC(=O)N(C(C)=O)c1nc2nc(C)cc(C)n2n1 | 9.89% |

| SMILES | hERG current change (%, negative = inhibition) at 1uM |
| --- | --- |
| CCCC(=O)Nc1cc2c3c(c1)C(C)C(=O)N3CCC2 (centres unmarked) | 15.1% |
| COc1ccc(NC(=S)N2CCC(c3ccccc3)C2)cc1 (centres unmarked) | 9.29% |
| CSCc1c(C(=O)Nc2ccccc2N2CCOCC2)oc2ccccc12 | 6.48% |
| CCN(CC)CCOC(=O)c1cccc(Br)c1.Cl | -30% |
| COc1ccccc1N1CCN(C(=O)c2ccc3c(=O)n(Cc4ccc5c(c4)OCO5)c(=O)[nH]c3c2)CC1 | 19.4% |
| Cc1ccc(-n2nc3c(=O)n(CC(=O)NCCc4ccccc4C)nc(C)c3c2C)cc1 | 7.42% |
| O=C(CSc1ccc(-c2cccc([N+](=O)[O-])c2)nn1)NC1CCCC1 | 14.2% |
| Cc1ccc(C)c(OCC(=O)Nc2cccc(S(=O)(=O)NC3=NCCCCC3)c2)c1 | 5.48% |
| CN(C(=O)COC(=O)c1cc([N+](=O)[O-])ccc1Sc1ccccc1)C1CCS(=O)(=O)C1 (centres unmarked) | 20.6% |
| Cc1cccc(Cn2c(C(C)(C)C)cc3cccnc32)c1 | -4.68% |
| NC(=O)CN1C(=O)C(O)(CC(=O)/C=C\c2ccc3c(c2)OCO3)c2ccccc21 (centres unmarked) | 12.9% |
| C#CCn1c(O)c(N=NC(=O)CNC(=O)c2cccnc2)c2ccccc21 | 5.89% |
| Cc1c(NC(=O)CN2C(=O)c3cccc4cccc2c34)c(=O)n(-c2ccccc2)n1C | 6.27% |
| COc1ccc(C(=O)N2CCc3c([nH]c4ccccc34)C2C(F)(F)F)cc1 (centres unmarked) | 12.1% |
| COc1ccc(-n2nnnc2-c2cccc(OC)c2)cc1 | -1.29% |
| CCOC(=O)/C(C#N)=C/C=C1/C=CC=CN1C | 11% |
| Cc1nc(Nc2ccncc2)c2oc3ccccc3c2n1 | 4.59% |
| COc1cccc(/C=N/NC(=O)c2cccs2)c1 | 1.83% |
| Cn1cc(Cl)c(C(=O)Nc2nccs2)n1 | 11.9% |

| SMILES | hERG current change (%, negative = inhibition) at 1uM |
| --- | --- |
| Cc1ccc(NC(=O)CCSc2nnc(C)s2)cc1 | 7.77% |
| CS(=O)(=O)N(CC(=O)N1CCCC1)c1cc(C(F)(F)F)ccc1Cl | 10.5% |
| CCOC(=O)c1c(NC(=S)Nc2cccnc2)sc(C)c1C | 10.5% |
| CCN(CC(=O)NCc1ccc(F)cc1)C(=O)c1cc2ccccc2o1 | -20.9% |
| CCC1C(=O)CC(c2ccc([N+](=O)[O-])cc2)NC1c1ccc([N+](=O)[O-])cc1 (centres unmarked) | -69.7% |
| Cc1ccc(N=Nc2cc(C)ccc2N)cc1 | 6.45% |
| CCCS(=O)(=O)Nc1ccc(-c2cn3c(n2)SCC3)cc1 | 12.5% |
| O=C(COC(=O)c1cncc(Br)c1)Nc1ccc(N2CCCCC2)cc1 | 6.82% |
| CS/C(=N\S(=O)(=O)c1cccs1)Nc1cccc(Cl)c1C | 10.3% |
| Cl.OC(COc1ccccc1)CN1CCC(Cc2ccccc2)CC1 (centres unmarked) | -78% |
| CCN(CC)CCN(C(=O)CCS(=O)(=O)c1ccccc1)c1nc2c(C)cc(C)cc2s1.Cl | 5.59% |
| O=C(COc1ccc(F)cc1Cl)Nc1ccccc1C(=O)N1CCCCC1 | 8.94% |
| COc1ccc(/C=N/NC(=O)c2ccccc2NC(=O)c2ccco2)c(OC)c1 | 14.4% |
| CC1C(=O)Nc2ccccc2N1C(=O)C1CC1 (centres unmarked) | -3.82% |
| CCCCCCCNC(=O)C1(CC2CC(c3cccc(Br)c3)=NO2)CCN(C(=O)c2cc(OCC)c(OCC)c(OCC)c2)CC1 (centres unmarked) | 13.5% |
| O=C(c1cccc(Br)c1)N1CCN(C2=NS(=O)(=O)c3ccccc32)CC1 | -26% |
| CC(C)[C@H](NC(=O)[C@H](CCCN=C(N)N)NC(=O)NC(Cc1ccccc1)C(=O)O)C(=O)NC(C=O)CCCN=C(N)N (stereo partly drawn) ({ξF-CO}-Arg-Val-[ξR]-aldehyde) | 14.1% |
| CCOC(=O)N1CCC(NC(=O)c2cc3c(C)nc4ccccc4c3o2)CC1 | -0.501% |
